Data from article PMC12136788.
Substitutions are numbered along the chain they refer to. The list shows a part of the results.

B1: 79225077_79225582_1203_3pUTR_ENSMUSG00000020716_ENSMUST00000071325|mouse|control|control (ssRNA)
RNA: GGGAGUUCUACAGUCCGACGAUCGGUUUACUUGGAUUAAAAAGCAGGUUCUUAAGAUCAACUACCAUGGACUGAACCAGUAGGAAAAUGACAGAAUUAUCUUCCCAGUUGAUGUAAGUACUUGCUUUACACAACUUGACACAACAACAGAGGAUUGAGCAUCA
B2: chr15:78834838:78834839:+_ENSG00000041357_ENST00000044462|hu_hu|motif|central (ssRNA)
RNA: GGGAGUUCUACAGUCCGACGAUCAUCAAGAAGCUUGUGGAUGUUGCGUCUCUCUGCUGCAAGCAAAACACCAUCAUUUGCGGAAAUUCCCAAACAGGUGCCUGCAUGUCCAAUAGCUUCCAUGGCAUAUUCAACUUGGUAUAACAACAGAGGAUUGAGCAUCA
B3: chr2:216981417:216981418:+_ENSG00000079246_ENST00000392132|hu_mus|FALSE|FALSE (ssRNA)
RNA: GGGAGUUCUACAGUCCGACGAUCCUGAUACUGGUCCUUGCCAGCAAGGGCAUUAUCAGUGCCAUCUGUGCCAUAGAGGACUAACGCAAUCUCAUCUUUGCUCUCCGAAAAUACCUGUCGUUGGACAAACAUAGUCAUCACUUUCAACAGAGGAUUGAGCAUCA
B4: chr2:216981417:216981418:+_ENSG00000079246_ENST00000392132|hu_hu|hu_hu_hu_mus_True|8_88 (ssRNA)
RNA: B3 RNA with C50G, A54G, A132G, C135U
B5: chr3:127788656:127788657:+_ENSG00000058262_ENST00000243253|hu_hu|FALSE|FALSE (ssRNA)
RNA: GGGAGUUCUACAGUCCGACGAUCCACUUUCACAGUUCUUUUUGCCAGUGCCAGGAUAAAAAGCAAAAUUUUAAAUUGGAAAAUGUCUAGCACUUUACACAGUGGAAUGAAAGAAUACGAAAUUCAAAAACAUUAUUAAAAGUCCAACAGAGGAUUGAGCAUCA
B6: chr7:34935884:34935885:-_ENSMUSG00000052997_ENSMUST00000102746|mus_mus|motif|central (ssRNA)
RNA: GGGAGUUCUACAGUCCGACGAUCUAAAAUCUUUAAUCCUUCCAACACUAUCAAGCCGGCGAUCACUGCAUUAGUAGUAGCGGUAGCAGGAAUGAUAUUCCCUGCCAUUGAUUUUAUAUCAAACCUGCUCUUCAUAUUCAUGCUCAACAGAGGAUUGAGCAUCA
B7: chr6:75965845:75965846:-_ENSG00000112697_ENST00000230461|hu_hu|FALSE|FALSE (ssRNA)
RNA: GGGAGUUCUACAGUCCGACGAUCAUUUGCUUUCAUAAUAUAAAAUUAAAUGGUAAUGUCAGCUGUAUUACUACUGUUUCUAUAUUUAUGAUUAAUUACUAGCAGUACAACUCCCAGAAGGAAGGAGAUGGAUCCAACAGCGAUCAACAGAGGAUUGAGCAUCA
B8: chr8:11781157:11781158:+_ENSMUSG00000031511_ENSMUST00000110909|mus_mus|FALSE|FALSE (ssRNA)
RNA: GGGAGUUCUACAGUCCGACGAUCCAAGGAGCUGAGGACCUUGUUAAAGUUCUGCCCCUGAUACAAAUCAUUUGCAUCAAAAGUCUCUAGGCGCAGGGACGCCCCGCAGGCGCGCAGGAACUCGCGGAUGUUGCUCAGGCACUCCAACAGAGGAUUGAGCAUCA
B9: 65321744_65321864_161_3pUTR_ENSG00000103707_ENST00000220058|human|control|control (ssRNA)
RNA: GGGAGUUCUACAGUCCGACGAUCGGCGGCGUGCAGCGCCCGCAGCGCCUCGCGGGCGAACUGGUCCGUGCCGAAGAAGAGCACCCGCCAGGGAGGCUUCUCGCGGACUCUGGAGUCCCGGCAGUCCUCCCAGCCGAGUCGGGCCAACAGAGGAUUGAGCAUCA
B10: chr4:148551591:148551592:-_ENSMUSG00000063077_ENSMUST00000060537|mus_hu|mus_mus_mus_hu_False|1_108 (ssRNA)
RNA: GGGAGUUCUACAGUCCGACGAUCACCUUACAAAAUUAAAUAUCCCUGUAAAUUAGACAAUAAGCAGCAGGCAACAAAGUCUUUGCUUUGGAAUAUGUGCCAGGAAAAGUCAUCUUGUUUUUAGAUCUCAAGAGACACAACCAUCAACAGAGGAUUGAGCAUCA
B11: chr1:175956164:175956165:-_ENSG00000143207_ENST00000367666|hu_mus|FALSE|FALSE (ssRNA)
RNA: GGGAGUUCUACAGUCCGACGAUCAGCAGCAAUCAGCACAUUGGACUCCCCGUCUGAUAGUGCCCGCCAACACACAGCACUGACAAAUUCAUUUGUGUCAUCUUCUUUCCGAUCUUUGUCUAAUACACUCUUAACGGUAUCAAACAACAGAGGAUUGAGCAUCA
B12: chr6:114281168:114281169:-_ENSG00000196591_ENST00000368632|hu_hu|hu_hu_hu_mus_True|1_68 (ssRNA)
RNA: GGGAGUUCUACAGUCCGACGAUCUUCCAUUUUUCGGUAUAAACCAUAAUUUAGCAGCAAGUUAUGAGUCAUGCGGAUUCUAUGAGGCUUCAUGGGAUGACCCUGGCCAUAAUAAUAAUUGCCAAUAUCACCAUCAUACUAGAACAACAGAGGAUUGAGCAUCA
B13: 33132165_33136767_899_CDS_ENSMUSG00000028277_ENSMUST00000124992|mouse|control|control (ssRNA)
RNA: GGGAGUUCUACAGUCCGACGAUCUCUCUGACUCUGUUGCUGGGCUCUGCGCUGCCGAGGGCUCAUGGAGGUAUUCUUAGGAGCUGGCUGGGUAGGUUGUGGCAAGGGUGCUCCUGAUGGAUUCUGGGCGCCAUACGAUGUGCUCAACAGAGGAUUGAGCAUCA
B14: chr17:66468409:66468410:+_ENSMUSG00000024101_ENSMUST00000116556|mus_mus|FALSE|FALSE (ssRNA)
RNA: GGGAGUUCUACAGUCCGACGAUCUGGGAUGGAGUCUGACAUUCGAGAGAAGGCUCCUCCAGGUCCCUCACUGGUUCCAGUGCUAGGUCCCUUUCCAGAGAUACCUUUGCGCCUCAUGACAAGUUUGUUGAAGAGAUCUGACAUCAACAGAGGAUUGAGCAUCA

Molecular target: T1, UNK ZnF1-3 (human, UniProt Q9C0B0 31-174)
T1 sequence: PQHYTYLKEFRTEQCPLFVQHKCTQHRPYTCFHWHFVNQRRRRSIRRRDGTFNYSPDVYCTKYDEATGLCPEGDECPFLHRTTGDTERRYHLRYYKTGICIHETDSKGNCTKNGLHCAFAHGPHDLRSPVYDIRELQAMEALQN
Assay: nsRBNS (natural sequence RNA bind-n-seq); RBNS binding buffer (assumed for nsRBNS): 25 mM Tris pH 7.5, 150 mM KCl, 3 mM MgCl2, 0.01% Triton X-100, 500 ug/ml BSA, 20 U/ml SUPERase-In, 4 C; UNK is unkempt and MSI1 is Musashi-1; names of the RNAs are library labels; protein concentration not given here; high values mean tight binding

Row | Binder | binding signal
1 | B1 | 0.486 enrichment R
2 | B2 | 0.875 enrichment R
3 | B3 | 0.599 enrichment R
4 | B4 | 1.23 enrichment R
5 | B5 | 2.5 enrichment R
6 | B6 | 0.506 enrichment R
7 | B7 | 1.03 enrichment R
8 | B8 | 0.82 enrichment R
9 | B9 | 0.89 enrichment R
10 | B10 | 1.31 enrichment R
11 | B11 | 1.26 enrichment R
12 | B12 | 1.07 enrichment R
13 | B13 | 0.746 enrichment R
14 | B14 | 0.746 enrichment R
